# In PMC6602471:
# The list shows a part of the results. At the low end of the ranking the order means little.
# Target: T1, ELK1 (UniProt P19419)
# T1 sequence: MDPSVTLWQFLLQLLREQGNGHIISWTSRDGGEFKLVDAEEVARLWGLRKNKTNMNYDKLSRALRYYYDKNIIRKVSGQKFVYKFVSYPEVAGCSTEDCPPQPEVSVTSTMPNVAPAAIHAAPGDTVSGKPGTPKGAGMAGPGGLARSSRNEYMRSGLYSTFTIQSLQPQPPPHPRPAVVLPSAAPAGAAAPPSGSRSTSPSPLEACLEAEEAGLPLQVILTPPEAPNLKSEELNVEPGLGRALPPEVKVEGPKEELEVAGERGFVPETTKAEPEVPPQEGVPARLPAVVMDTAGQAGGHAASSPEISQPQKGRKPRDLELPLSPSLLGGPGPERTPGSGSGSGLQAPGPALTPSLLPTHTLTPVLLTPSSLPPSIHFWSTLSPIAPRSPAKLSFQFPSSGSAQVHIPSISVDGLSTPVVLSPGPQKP
# Assay: custom PBM
# Conditions: custom protein-binding microarray; buffer, salt, pH and temperature not stated; high values mean tight binding; double strand, one strand shown
row,Sequence,binding signal (log fluorescence intensity)
1,GGAAACAGGCCCAGGGTAACACCGGAAGTGGGCTTAGTCTTGATTCGCTTGACGCTGCTG,10.7
2,GGAAAATGGCCCAGGGTAACACCGGAAGTGGGCTTAGTCTTGATTCGCTTGACGCTGCTG,11
3,CAGCATAGGACTTATTCCCTGAAGCAATTGATAACCGTCTTGATTCGCTTGACGCTGCTG,8.93
4,TGTCGGGTAAGGAAATGTAGATCACGTGAATGAAAAGTCTTGATTCGCTTGACGCTGCTG,8.91
5,CTGGGACTTGACCCAACTATGCCACGTGGGTCGTTTGTCTTGATTCGCTTGACGCTGCTG,8.89
6,GATTAATTTCTGCCCTTATTAGCACGTGCCATAACAGTCTTGATTCGCTTGACGCTGCTG,8.82
7,TACTGACTTATATATGCGAATGCACATGAATTGACCGTCTTGATTCGCTTGACGCTGCTG,8.9
8,TCCGGCTATCAGCTCCACCCACTTCAGGCCTTGTAGGTCTTGATTCGCTTGACGCTGCTG,9.1
9,CACAATTTTTACAGTAATGTAGCACGCGTAACCCCTGTCTTGATTCGCTTGACGCTGCTG,8.95
10,TGTCGGGTAAGGGAATGTAGATCACATGAATGAAAAGTCTTGATTCGCTTGACGCTGCTG,8.86
11,CTGGGACTTGACCCAACTCTGCCACGTGGGTCGCTTGTCTTGATTCGCTTGACGCTGCTG,8.88
12,TGTCGGGTAAGGGAATGTATATCACGTGAATGAAAAGTCTTGATTCGCTTGACGCTGCTG,8.72
13,CACAATTTTTATAGTAATGTAGCACGCGTAACTCCTGTCTTGATTCGCTTGACGCTGCTG,8.86
14,CTGGGACCTGACCCAACTCTGCCACGTGGGTCGTTTGTCTTGATTCGCTTGACGCTGCTG,8.72
15,GATTAATTTCTGCCCTTATTCGCAGGTGCCATAACAGTCTTGATTCGCTTGACGCTGCTG,8.99
16,GCTGCTGCGGTGCATACCCCACCGGATGTGACCCTGGTCTTGATTCGCTTGACGCTGCTG,10.1
17,TACTGACTTATATATGCGAATGCTCATGAATAGACCGTCTTGATTCGCTTGACGCTGCTG,8.85
18,GGAAAAAGGCACAGGGTAACACCGGAAGTGGGCTTAGTCTTGATTCGCTTGACGCTGCTG,11
19,GTGTATGGGATCCCATCCAACACACGTGTTAAAATGGTCTTGATTCGCTTGACGCTGCTG,9.12
20,CTGGGACTTGACCCAACTCTGCCACGTGGGACGTTTGTCTTGATTCGCTTGACGCTGCTG,8.84
21,CGGAAGTGTCGTAAACGTCGGATATCCGGTGCTTCTGTCTTGATTCGCTTGACGCTGCTG,12.5
22,TACTGACTTATATAGGCGAATGCACATGAATAGACCGTCTTGATTCGCTTGACGCTGCTG,8.82
23,TGTCGGGTAAGGGAATGTCGATCACGTGAATGAAAAGTCTTGATTCGCTTGACGCTGCTG,8.77
